Experimental data as given in PubChem BioAssay AID485294 (National Center for Advancing Translational Sciences (NCATS), 2010).
Screen size: about 370,000 compounds; about 150 (0.041%) were called active. The shares of active, inactive and inconclusive entries below differ from those in the screen. Calls follow the shape of the dose curve; as a rule, active = well fitted inhibition curve with a large enough effect; inconclusive = small, poorly fitted or top-dose-only effect; inactive = flat fitted curve, though single readings scatter. Potencies of inconclusive entries are left out as doubtful fits.
Also: nearly all actives have a fitted effect of over 25% in size.
Potency is read from the fitted curve at half-maximal effect; tags tell the direction and shape of the fitted curve.

Each compound was assayed against Beta-lactamase (Escherichia coli (strain K12)) (UniProt P00811) (assay: qHTS Inhibitors of AmpC Beta-Lactamase (assay with detergent)). Conditions: AmpC hydrolysis of nitrocefin, absorbance 480 nm, 0.01% Triton; series mostly up to 114 µM.
Sequence of UniProt P00811 (P00811 whole entry, looked up): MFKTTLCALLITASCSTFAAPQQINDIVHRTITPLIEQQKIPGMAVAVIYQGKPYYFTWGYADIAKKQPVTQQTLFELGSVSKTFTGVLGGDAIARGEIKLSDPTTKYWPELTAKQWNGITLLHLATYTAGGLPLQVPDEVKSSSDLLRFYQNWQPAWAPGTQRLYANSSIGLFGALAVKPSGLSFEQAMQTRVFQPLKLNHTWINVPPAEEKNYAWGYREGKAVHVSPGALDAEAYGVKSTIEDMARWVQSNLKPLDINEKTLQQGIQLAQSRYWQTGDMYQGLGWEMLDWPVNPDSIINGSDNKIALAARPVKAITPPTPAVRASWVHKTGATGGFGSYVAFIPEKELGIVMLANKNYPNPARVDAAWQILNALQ
Summary of the method: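 AmpC (5.3 nM in the dispensed reagent) in 20 mM phosphate pH 7.0 with 0.01% (detergent screen) or 0.0001% Triton X-100 was preincubated with compounds for 15 min at room temperature. Nitrocefin was then added from an 800 uM solution, and hydrolysis was followed at 480 nm.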
`COc1ccc(C2CC(c3cc(OC)ccc3OC)n3nnnc3N2)cc1` (stereo not drawn) was tested, and the Potency was inconclusive [inhibitor, full curve, poor fit]. In the case of `COc1ccc(CCNC(=O)c2c(C)oc3ncn(CC(C)C)c(=O)c23)c(OC)c1`, the Potency is reported as “inactive”. With `Cc1cnc(NC(=O)Cc2ccc(C)c(C)c2)s1` the Potency was inconclusive [inhibitor, full curve, poor fit]. With `COc1ccc(Nc2c(-c3ccsc3)nc3nc(C)cc(C)n23)cc1` the Potency was “inactive”. In the case of `CCOC(=O)N1CCN(C(=O)CN(c2ccc(OC)cc2)S(C)(=O)=O)CC1`, the Potency is reported as inconclusive [inhibitor, full curve, poor fit]. With `CCC(CC)C(=O)Nc1cc(-c2nc3cccnc3s2)ccc1C` the Potency was “inactive”. In the case of `COc1ccccc1OCC(=O)Nc1ccc(S(=O)(=O)N2CCCC2)cc1`, the Potency is reported as “inactive”. For `Cc1cc(NC(=O)C(C)SCC(=O)Nc2ccccc2OC(F)F)no1` (stereo not drawn), the Potency was “inactive”. In the case of `O=C(c1cccc(C(=O)N2CCN(c3ccccc3)CC2)c1)N1CCN(c2ccccc2)CC1`, the Potency is reported as inconclusive [inhibitor, single point]. With `O=c1ccc(/C=C/c2ccccc2)nn1Cc1ccccc1` the Potency was inconclusive [inhibitor, full curve, poor fit]. For `COc1cc(CN(C)CCc2ccccc2)ccc1OCc1ccccc1`, the Potency was “inactive”. In the case of `CCOC(=O)Cn1c(=O)oc2cc(S(=O)(=O)N3CCN(c4ccc(F)cc4)CC3)ccc21`, the Potency is reported as “inactive”. With `Clc1ccccc1C1CC(c2ccccc2)=Nc2ccccc2N1` (stereo not drawn) the Potency was “inactive”. In the case of `Cc1ccc(NC(=O)CN2C(=O)CC(c3ccc(C)c(C)c3)=Nc3ccccc32)cc1`, the Potency is reported as “inactive”. `Cn1cccc1C(=O)OCC(=O)c1cc2ccccc2o1` was tested, and the Potency was inconclusive [inhibitor, full curve, poor fit]. With `Cc1c(NC(=O)c2n[nH]c(=O)c3ccccc23)c(=O)n(-c2ccccc2)n1C` the Potency was inconclusive [inhibitor, full curve, poor fit]. `Cc1cc(C)c(NC(=O)C2CCC(=O)N2)c(C)c1` (stereo not drawn) was tested, and the Potency was inconclusive [inhibitor, single point]. With `COc1ccc(-c2nc(C#N)c(NCCc3ccccc3)o2)cc1OC` the Potency was inconclusive [inhibitor, full curve, poor fit]. With `NC(=O)C1CCN(C(=O)CCSc2ccccc2)CC1` the Potency was inconclusive [inhibitor, partial curve]. For `CC(OC(=O)c1ccc(NC(=O)CC#N)cc1)C(=O)Nc1nc(-c2ccccc2)cs1` (stereo not drawn), the Potency was inconclusive [inhibitor, full curve, poor fit]. `Cc1ccc(OCC(=O)Nc2ccc(O)c(C(=O)O)c2)cc1C` was tested, and the Potency was inconclusive [inhibitor, full curve]. In the case of `O=c1cc(C(F)(F)F)nc(SCc2cccc3ccccc23)[nH]1`, the Potency is reported as inconclusive [inhibitor, full curve, poor fit]. In the case of `COc1ccc(Cl)cc1NC(=O)CSc1nnc(Cc2cccn2C)n1-c1ccc(F)cc1`, the Potency is reported as inconclusive [inhibitor, full curve, poor fit]. For `COc1ccc2c(c1)CCc1cnc(N)nc1-2`, the Potency was “inactive”. In the case of `Nc1nc(Cl)cc(-c2ccccc2)n1`, the Potency is reported as “inactive”. In the case of `CC1CCN(C(=O)c2ccc(N3CC4CC(C3)c3cccc(=O)n3C4)c([N+](=O)[O-])c2)CC1` (stereo not drawn), the Potency is reported as “inactive”. In the case of `COc1ccc(CNC(=O)C2CCCN2S(=O)(=O)c2ccccc2)cc1` (stereo not drawn), the Potency is reported as inconclusive [inhibitor, partial curve, poor fit]. `COc1ccc(CCNC(=O)C(=O)NCCOc2ccccc2Cl)cc1OC` was tested, and the Potency was inconclusive [inhibitor, full curve]. With `C/C(=N\NC(=O)CN(c1ccccc1)S(C)(=O)=O)c1ccccc1O` the Potency was “inactive”. With `O=C(c1ccc2ccccc2c1)N1CCOCC1` the Potency was inconclusive [inhibitor, partial curve]. `O=C(O)C1C2C=CC(C2)C1C(=O)NCCCc1ccccc1` (stereo not drawn) was tested, and the Potency was inconclusive [inhibitor, full curve, poor fit]. For `C=CCOC(=O)C1=C(C)NC(SCC(=O)Nc2ccccc2)=C(C#N)C1c1ccco1` (stereo not drawn), the Potency was “inactive”. With `c1csc(C2C3=C(Nc4ncnn42)c2ccccc2OC3)c1` (stereo not drawn) the Potency was inconclusive [inhibitor, partial curve, poor fit]. In the case of `CCSc1nc(-c2ccccc2)c2cc(Cl)ccc2n1`, the Potency is reported as inconclusive [inhibitor, partial curve, poor fit]. With `COC(=O)c1ccc(CNC(=O)Cn2nnnc2CN(C)C(C)C)cc1` the Potency was inconclusive [inhibitor, partial curve, poor fit]. In the case of `CC1CCCN(C2(O)C(=O)Nc3ccc(Cl)cc32)C1` (stereo not drawn), the Potency is reported as “inactive”. In the case of `CC(C)C(NC(=O)c1ccccc1F)C(=O)OCC(=O)c1ccc(F)cc1` (stereo not drawn), the Potency is reported as “inactive”. In the case of `CC(=O)Nc1ccc(OC(=O)Oc2ccc(NC(C)=O)cc2)cc1`, the Potency is reported as inconclusive [inhibitor, partial curve]. In the case of `O=C(NCc1cccnc1)Nc1cccc(C(F)(F)F)c1`, the Potency is reported as inconclusive [inhibitor, partial curve]. With `Cn1c(=NC(=O)CS(=O)(=O)c2ccccc2)sc2ccccc21` the Potency was inconclusive [inhibitor, full curve, poor fit]. In the case of `O=C(c1ccc(S(=O)(=O)c2ccccc2)cc1)N1CCCCCC1`, the Potency is reported as inconclusive [inhibitor, full curve]. For `Cc1nc2cc(Cl)c(Cl)cc2n1CCCO`, the Potency was “inactive”. In the case of `CC1=NN(C(=O)c2nn(C)cc2Br)C(O)(C(F)(F)F)C1` (stereo not drawn), the Potency is reported as inconclusive [inhibitor, partial curve, poor fit]. For `Cc1ccc(C(C(=O)NCc2ccccc2)N(Cc2cccs2)C(=O)c2ccc3c(c2)OCCO3)cc1` (stereo not drawn), the Potency was inconclusive [inhibitor, single point]. With `O=C(CSc1nnnn1-c1ccccc1)Nc1nc(-c2ccccc2)ns1` the Potency was inconclusive [inhibitor, partial curve, poor fit]. For `NN/C(=C\[N+](=O)[O-])Nc1ccc(Cl)cc1`, the Potency was “inactive”. `CCOc1ccc(CCNC(=O)CCc2nnc3ccc(N4CCOCC4)nn23)cc1` was tested, and the Potency was inconclusive [inhibitor, full curve, poor fit]. With `COc1ccc(-n2c(=S)[nH]c3cc(C(=O)NCCCN4CCCC4=O)ccc3c2=O)c(OC)c1` the Potency was “inactive”. With `COc1ccc(-c2csc(NC(=O)CSc3nc(SC)ns3)n2)cc1` the Potency was inconclusive [inhibitor, partial curve]. With `O=C(/C=C/c1cccc([N+](=O)[O-])c1)Nc1cccc(NC(=O)c2cccs2)c1` the Potency was inconclusive [inhibitor, single point]. `COc1cc(Cl)c(C)cc1NC(=O)CSc1sc2c(O)cc(=O)[nH]c2c1C#N` was tested, and the Potency was “inactive”. For `COc1ccc(N2CCN(C(c3cc(OC)ccc3OC)c3nnnn3CC3CCCO3)CC2)cc1` (stereo not drawn), the Potency was inconclusive [inhibitor, full curve]. In the case of `CC1CCCCN1C(=O)CSc1nc(C2CC2)nc2c1cnn2-c1ccccc1` (stereo not drawn), the Potency is reported as inconclusive [inhibitor, single point]. With `Cc1ccc(OCC(=O)N2CCN(S(=O)(=O)c3ccccc3)CC2)c([N+](=O)[O-])n1` the Potency was inconclusive [inhibitor, full curve, poor fit]. For `COc1ccc(C(=O)NC(=S)Nc2ccc(CN3CCOCC3)cc2)cc1Br`, the Potency was inconclusive [inhibitor, partial curve, poor fit]. In the case of `Cc1cc(C)n(-c2ccc(C(=O)Nc3ccc4c(c3)OCO4)cc2)n1`, the Potency is reported as inconclusive [inhibitor, full curve, poor fit]. For `O=C(Nc1ccc(S(=O)(=O)Nc2nccs2)cc1)c1nn(-c2ccccc2)ccc1=O`, the Potency was inconclusive [inhibitor, full curve, poor fit]. For `CC(Sc1nnc(CNC(=O)c2ccco2)n1C)C(=O)Nc1nccs1` (stereo not drawn), the Potency was inconclusive [inhibitor, full curve, poor fit]. With `CCN(CC)CCCNC(=O)c1cc2c(-c3cccc(OC)c3)nn(C)c2s1` the Potency was “inactive”. For `Cc1c(C(=O)Nc2ccccc2)c2cc(O)ccc2n1Cc1ccccc1`, the Potency was inconclusive [inhibitor, full curve, poor fit]. In the case of `CCC(=O)NC(=S)Nc1ccc(N2CCN(C(=O)c3ccc(Cl)cc3)CC2)cc1`, the Potency is reported as “inactive”. `COc1ccc(C(=O)NC(Cc2ccc(OC(=O)c3ccc(OC)cc3)cc2)C(=O)O)cc1` (stereo not drawn) was tested, and the Potency was inconclusive [inhibitor, full curve, poor fit]. For `COc1ccc(NC(=O)CSc2nnc(COc3ccccc3)n2Cc2ccco2)cc1OC`, the Potency was inconclusive [inhibitor, partial curve, poor fit]. In the case of `COc1ccc(CCNS(=O)(=O)c2ccc(F)cc2)cc1OC`, the Potency is reported as inconclusive [inhibitor, full curve]. `CC(=O)c1sc(NC(=O)CCS(=O)(=O)c2ccccc2)nc1C` was tested, and the Potency was “inactive”. For `Cc1ccc(C2CC(=O)N3CN(Cc4ccco4)CSC3=C2C#N)cc1` (stereo not drawn), the Potency was inconclusive [inhibitor, full curve, poor fit]. `CC(=O)N1N=C2c3ccccc3CCC2C1c1cccs1` (stereo not drawn) was tested, and the Potency was inconclusive [inhibitor, full curve, poor fit]. With `O=C(NC1(C(F)(F)F)NC(=O)N(Cc2cccnc2)C1=O)c1ccc(F)cc1` (stereo not drawn) the Potency was inconclusive [inhibitor, full curve].
